# Laboratory results published in the supplement of paper PMC7826260.
# This is one part of the list. Viral Rep nickase domains cut single-stranded DNA in vitro (1 h at 37 °C, 3 µM enzyme); the outer parts of the 90-letter strands are left off. The score is log2 (uncut reads / reads without enzyme); the lower, the more was cut; hits are not called. Reads are scaled to the total; values above 0 arise when much of the pool is cut.
# What was measured:
# Experiment in all cases: uncleaved DNA left, log2 of reads against the no-enzyme library (log2 ratio); higher = less cleavage (more negative = more Rep cleavage of the k-mer); sequences stand for … in CTCGTCCG…ACCGGAGA
# [1] = system: T1, Rep nickase domain of Muscovy duck circovirus
# T1 sequence (residues 1-111 of Rep, tag left off): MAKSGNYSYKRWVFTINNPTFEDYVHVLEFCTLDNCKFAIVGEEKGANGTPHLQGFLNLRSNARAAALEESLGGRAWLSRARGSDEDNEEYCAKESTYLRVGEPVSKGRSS
# Protocol: (§1)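 A pool of 90-nt single-stranded DNAs with seven random bases just before the constant AC of the nick site (name = the seven bases) was cut by 3 µM recombinant His6-SUMO-tagged Rep nickase domain (300 nM DNA, 50 mM HEPES pH 8.0, 50 mM NaCl, 1 mM MnCl2, 1 h, 37 °C, three replicates). Uncut DNA was amplified and sequenced.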
# [2] = system: T2, Rep nickase domain of banana bunchy top virus
# T2 sequence (residues 1-94 of Rep, tag left off): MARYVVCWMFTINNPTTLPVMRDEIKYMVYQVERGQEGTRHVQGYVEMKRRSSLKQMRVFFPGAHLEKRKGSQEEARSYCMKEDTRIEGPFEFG
# Protocol: as §1
# [3] = system: T3, Rep nickase domain of cabbage leaf curl virus
# T3 sequence (residues 1-116 of Rep, tag left off): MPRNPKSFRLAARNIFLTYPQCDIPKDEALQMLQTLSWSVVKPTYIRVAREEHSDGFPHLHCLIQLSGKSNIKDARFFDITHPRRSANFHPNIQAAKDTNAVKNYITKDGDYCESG
# Protocol: as §1
# [4] = system: T4, Rep nickase domain of chickpea chlorotic dwarf virus
# T4 sequence (residues 1-124 of Rep, tag left off): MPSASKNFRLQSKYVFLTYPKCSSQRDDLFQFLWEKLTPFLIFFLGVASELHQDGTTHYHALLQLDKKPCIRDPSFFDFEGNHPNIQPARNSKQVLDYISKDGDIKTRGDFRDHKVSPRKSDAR
# Protocol: as §1
# [5] = system: T5, Rep nickase domain of faba bean necrotic yellows virus
# T5 sequence (residues 1-98 of Rep, tag left off): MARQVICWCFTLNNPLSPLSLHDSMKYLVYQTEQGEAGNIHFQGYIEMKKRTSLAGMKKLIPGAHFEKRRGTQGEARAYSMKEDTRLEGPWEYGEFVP
# Protocol: as §1
# [6] = system: T6, Rep nickase domain of maize striate mosaic virus
# T6 sequence (residues 1-117 of Rep, tag left off): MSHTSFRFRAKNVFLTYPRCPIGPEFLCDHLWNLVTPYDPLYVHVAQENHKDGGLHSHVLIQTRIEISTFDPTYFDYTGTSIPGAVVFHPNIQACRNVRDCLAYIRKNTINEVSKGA
# Protocol: as §1
# [7] = system: T7, Rep nickase domain of porcine circovirus 2
# T7 sequence (residues 2-116 of Rep, tag left off): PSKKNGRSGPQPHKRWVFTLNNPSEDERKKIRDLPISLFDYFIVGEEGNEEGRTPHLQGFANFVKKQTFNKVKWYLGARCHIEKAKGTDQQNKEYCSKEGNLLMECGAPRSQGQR
# Protocol: as §1
# [8] = system: T8, Rep nickase domain of tomato golden mosaic virus
# T8 sequence (residues 1-124 of Rep, tag left off): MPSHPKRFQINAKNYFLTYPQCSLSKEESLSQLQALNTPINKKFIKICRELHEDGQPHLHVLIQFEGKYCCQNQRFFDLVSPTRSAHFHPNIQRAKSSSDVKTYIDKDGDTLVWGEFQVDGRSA
# Protocol: as §1
# [9] = system: T9, Rep nickase domain of tomato yellow leaf curl virus
# T9 sequence (residues 1-136 of Rep, tag left off): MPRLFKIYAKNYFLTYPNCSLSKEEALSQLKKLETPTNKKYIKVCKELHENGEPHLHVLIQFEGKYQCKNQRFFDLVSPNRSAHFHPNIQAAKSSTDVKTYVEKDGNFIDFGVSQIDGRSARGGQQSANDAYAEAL
# Protocol: as §1
# [10] = system: T10, Rep nickase domain of wheat dwarf virus
# T10 sequence (residues 1-137 of Rep, tag left off): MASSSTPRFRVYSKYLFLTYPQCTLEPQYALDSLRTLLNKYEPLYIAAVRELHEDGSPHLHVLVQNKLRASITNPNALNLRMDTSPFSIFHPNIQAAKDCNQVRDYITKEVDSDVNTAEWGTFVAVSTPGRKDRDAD
# Protocol: as §1
Sequence,uncleaved DNA left (log2) [1],uncleaved DNA left (log2) [2],uncleaved DNA left (log2) [3],uncleaved DNA left (log2) [4],uncleaved DNA left (log2) [5],uncleaved DNA left (log2) [6],uncleaved DNA left (log2) [7],uncleaved DNA left (log2) [8],uncleaved DNA left (log2) [9],uncleaved DNA left (log2) [10]
TGACATA,0.0362,0.0907,0.687,1.54,0.029,1.96,0.107,0.0514,0.0801,0.279
GTCAAGA,0.0281,0.116,0.348,0.922,0.0713,1.47,0.126,0.178,0.15,0.124
CGTTCGT,-0.0814,-0.0648,-0.435,-0.695,0.0464,-0.926,-0.033,-0.183,0.0344,-0.0505
TGTGCTG,-0.0375,-0.156,0.0337,0.622,-0.1,0.987,-0.057,-0.109,-0.23,-0.217
CCTCTGT,0.0546,0.0395,-0.0693,-0.428,-0.122,-0.436,-0.191,0.0172,0.0814,-0.0378
AAGACAG,-0.0436,0.0528,-0.0734,0.366,0.0322,0.374,0.117,-0.0134,-0.0755,0.12
TGTCTTG,0.0203,0.0393,-0.111,-0.764,0.0313,-0.145,-0.00508,-0.124,-0.0396,-0.126
TGACAAT,0.129,0.216,0.632,0.978,0.0466,1.66,0.138,0.154,0.189,0.227
TCCCAAT,0.0321,0.0413,0.111,-0.349,-0.128,-0.206,0.00828,0.00181,0.0636,-0.0976
TCGACGG,0.0203,0.0477,0.193,0.851,0.0737,1.74,0.195,0.0461,-0.0768,0.0919
CTCTGAG,-0.018,-0.195,-0.719,-0.158,0.0866,-0.861,0.248,-0.0482,0.0674,0.0543
TCGGTAA,-0.108,-0.0728,0.00672,-0.0787,-0.24,-0.0114,-0.0677,-0.0479,-0.0791,-0.0463
TACGTGT,-0.00146,-0.14,-0.146,-0.697,-0.0302,-0.156,-0.0588,-0.053,-0.199,-0.114
TTGGTCG,-0.0377,-0.0735,-0.779,0.0975,0.0247,-0.857,-0.018,-0.0145,0.00928,-0.195
TCCGTCA,0.0113,-0.052,0.142,-0.336,-0.0393,-0.03,-0.0268,-0.0296,-0.0157,-0.119
GCCTAGT,-1.05,-0.0533,0.0857,0.045,-0.0467,-0.314,-2.37,0.0172,0.0508,-0.137
ACGCGTG,-0.0981,-0.111,-0.65,-0.566,-0.0763,-0.695,0.0775,-0.115,-0.00189,-0.178
GTTGCAG,0.0173,0.121,-0.4,-0.372,0.118,-0.728,0.285,0.123,0.124,0.0864
CCGTGCT,-0.536,-0.223,-1.66,-1.69,-0.277,-0.883,-2.75,-0.872,-0.0438,-1.07
GACACAC,-0.0323,-0.00383,0.194,0.623,-0.0565,0.351,0.129,0.0222,0.116,0.056
GTCCGCT,0.00942,-0.0314,0.167,0.458,-0.0616,0.6,-0.0118,-0.0103,0.0112,0.0689
ATTAGTG,0.0893,0.00483,-0.6,-0.613,0.0491,-1.14,0.313,0.138,0.118,0.133
TAGTGAG,0.0153,0.0105,-0.84,-0.519,-0.0135,-1.24,-0.112,-0.0633,0.0139,-0.0362
CCGTCCA,0.0491,-0.0556,0.0941,-0.781,-0.0102,-0.23,-0.134,-0.0264,0.0762,-0.036
TTAAAAA,0.07,0.0712,0.152,0.00478,0.0405,-0.206,0.0108,0.0541,0.0152,0.0267
GCACCCT,-0.0562,0.00591,-0.0127,-1.11,-0.0811,0.132,-0.325,-0.0558,-0.0646,-0.0443
TGGGGAG,0.119,0.0893,0.103,0.565,0.0775,0.17,0.203,-0.0882,-0.0726,-0.0912
ACCAAGG,0.134,0.0684,-0.362,0.0678,0.0779,-0.775,0.145,0.159,0.0377,0.0498
CTACGGA,0.041,0.0521,0.0492,-0.0279,-0.0642,-0.173,0.0563,0.0541,-0.124,-0.0747
ATCGTGT,-0.034,-0.0631,-0.273,-0.64,-0.0345,-0.968,-0.0944,-0.132,-0.0951,-0.129
